According to PubChem BioAssay AID463173 (ICCB-Longwood Screening Facility, Harvard Medical School, 2010):
About 4,300 (8.3%) of roughly 52,000 compounds were called active. Cut-off read from the data, not from the text of the source: active = survival mostly below about 52% (no sharp cut-off); inactive = mostly above about 56%. Some of the results follow.

Each compound was assayed on DeltatarO mutant (assay: S. aureus survival, RN4220 and DeltatarO strains – OD600, teichoic acid synthesis inhibitors, primary screen (AID 463173)). Conditions: S. aureus RN4220 wild type/DeltatarO growth, OD600, 18 h, active compounds read low, screened at 18.75 µg/mL (by protocol).

Row | Compound | survival
1 | C[N+]1=C(/C=C/Nc2ccccc2)SCC1 | inactive: 96%
2 | CCCN1C(=O)c2[nH]nc(-c3ccc(OC)cc3)c2C1c1ccccn1 (stereo not drawn) | inactive: 47%
3 | CCOCCCNC(=O)C1CCN(c2nc3ccc(Cl)cc3[nH]2)CC1 | inactive: 83%
4 | CNC(=O)C1CCC(Cn2c(=O)c3sccc3n(CC(=O)Nc3cc(C)cc(C)c3)c2=O)CC1 (stereo not drawn) | inactive: 70%
5 | COc1cccc(NC(=O)Cn2nc(-c3ccncc3)ccc2=O)c1 | inactive: 88%
6 | CCOc1ccc(NC(=O)C(=O)NCCc2sc(-c3ccc(C)cc3)nc2C)cc1 | inactive: 79%
7 | CC(C)c1ccc(C(=O)CC2(O)C(=O)N(CCc3ccccc3)c3ccc(Cl)cc32)cc1 (stereo not drawn) | active: 33%
8 | O=C(c1c[nH]c2ccc(S(=O)(=O)Nc3ccccc3F)cc2c1=O)N1CCCCCC1 | inactive: 83%
9 | COc1ccc(OC)c(NC(=O)C2CCN(S(=O)(=O)c3c(C)noc3/C=C/c3ccc(C)cc3)CC2)c1 | inactive: 71%
10 | CC1CCCCN1CCCNC(=O)c1sc2ncccc2c1-n1cccc1 (stereo not drawn) | active: 25%
11 | CCC(C)n1c(=N)c(C(=O)NCc2ccco2)cc2c(=O)n3cc(C)ccc3nc21 (stereo not drawn) | inactive: 77%
12 | CC(C)(O)C(=O)N=Nc1c(O)[nH]c2ccccc12 | inactive: 94%
13 | C/C(=N\N)c1ccc(OC(C)C)c(CN2CCOCC2)c1 | inactive: 91%
14 | COc1cc(C2SCC(C(=O)O)N2C(C)=O)cc(Br)c1O (stereo not drawn) | inactive: 100%
15 | COc1ccc(Cl)cc1C(=O)NCC(c1ccc(N(C)C)cc1)N1CCCC1 (stereo not drawn) | inactive: 99%
16 | Cc1cc2ccccc2nc1SCCN1CCOCC1 | inactive: 94%
17 | Cc1ccc(C)c(NC(=O)Cn2c(=O)n(CCCS(=O)(=O)C3CCCCC3)c(=O)c3ccccc32)c1 | inactive: 91%
18 | O=C(Cn1c(-c2cccs2)cc2cc(Cl)ccc21)N1CCCCC1 | inactive: 83%
19 | Cc1ccc(NC(=O)C2CCCN(S(=O)(=O)c3ccc4c(c3)CCCC(=O)N4)C2)cc1N(C)C (stereo not drawn) | inactive: 72%
20 | CN(C(=O)CSc1nc2ccc(NC(=O)c3cccs3)cc2s1)c1ccccc1 | inactive: 65%
21 | CCOc1ccc(NC(=O)CSc2nccn2C2CCCC2)cc1 | inactive: 89%
22 | COc1ccc(-n2c(=O)c3c4c(sc3n(CC(=O)C(C)(C)C)c2=O)CCCC4)c(OC)c1 | inactive: 64%
23 | O=C(c1ccc(-c2cccc(C(F)(F)F)c2)o1)N1CCOCC1 | inactive: 84%
24 | CCc1ccc(CNC(=O)C2CCN(C(=O)c3ccc(-n4c(C)cc5ccccc54)s3)CC2)cc1 | inactive: 70%

Row | Compound | survival
25 | COC(=O)c1cccc(CN2C(=O)SC(Nc3ccccc3C)C2=O)c1 (stereo not drawn) | inactive: 133%
26 | Cc1ccc(CN2C(=O)CN(C3CCCCCC3)C(=O)C2c2ccc(F)cc2)cc1 (stereo not drawn) | active: 6%
27 | N#Cc1cc2c(ccc3ccccc32)oc1=O | inactive: 71%
28 | Fc1ccc(-c2nnn3c2nc(NCc2ccccc2)c2ccccc23)cc1 | inactive: 104%
29 | O=C1CN(C(=O)c2c(F)cccc2Cl)C(c2ccc(F)cc2)c2cc(Br)ccc2N1 (stereo not drawn) | active: 42%
30 | Cn1c(=O)n(C)c2cc(N3CCOCC3)c(NS(=O)(=O)c3ccc(F)cc3)cc21 | inactive: 126%
31 | Cc1ccc2nc(/C(C#N)=C/c3ccc(-c4ccc(C(=O)OC(C)C)cc4)o3)[nH]c2c1 | active: 36%
32 | Cc1ccc2c(c1)c1c(c(=O)n(-c3ccccc3)c(=O)n1CC(=O)c1ccc(Cl)cc1)n2C | inactive: 113%
33 | Cc1c(C(=O)Oc2ccc(Br)cc2)sc2ncn(Cc3ccccc3F)c(=O)c12 | inactive: 81%
34 | Cc1ccc(NC(=O)C(=O)NCC(c2ccc3c(c2)OCO3)N2CCN(C)CC2)cc1C (stereo not drawn) | inactive: 68%
35 | COc1cc(NC(=O)Nc2c[nH]c(=O)[nH]c2=O)cc(OC)c1OC | inactive: 88%
36 | CC(C)CCNC(=O)Cn1cc(S(=O)(=O)Cc2ccc(F)cc2)c2ccccc21 | inactive: 74%
37 | COc1cc(N)ncn1 | inactive: 95%
38 | CCN(CC)S(=O)(=O)c1ccc2c(c1)c(=O)c(C(=O)N1CCN(c3ccccc3OC)CC1)cn2C | inactive: 83%
39 | COc1ccc(C(=O)Nc2nc(-c3nnn(-c4cc(OC)ccc4OC)c3C)ns2)cc1 | inactive: 109%
40 | Cc1ccc(OCc2cc(=O)n3c(-c4ccccc4)csc3n2)cc1 | inactive: 59%
41 | O=C(Cn1nnc(-c2cccc(C(F)(F)F)c2)n1)NCc1ccc(F)cc1 | inactive: 77%
42 | Cc1cccc(N2C(=O)CN(C(C)C)C(=O)C2c2ccc(F)cc2)c1C (stereo not drawn) | inactive: 74%
43 | CCc1ccc(CNC(=O)c2cc3cc4ccc(OC)cc4nc3o2)cc1 | inactive: 83%
44 | Cn1c(O)c(N=NC(=O)c2ccccc2)c2ccccc21 | inactive: 105%
45 | CCN(Cc1ccccc1)S(=O)(=O)c1ccc(N2CCCCS2(=O)=O)cc1 | inactive: 69%
46 | CCCCNC(=O)c1cnc2c(-c3ccc(OCC)c(OCC)c3)c(C)nn2c1-c1ccccc1 | inactive: 73%
47 | CCc1ccc2nc(N3CCC(C(=O)NCCC(C)C)CC3)sc2c1 | inactive: 144%
48 | CC1CN(C(=O)CSCc2ccccc2)CC(C)O1 (stereo not drawn) | inactive: 73%

Row | Compound | survival
49 | O=C(CCS(=O)(=O)c1cc2c(cc1Cl)NC(=O)CO2)NCc1ccccc1 | inactive: 106%
50 | Cc1nc2ccc(NC(=O)C3CCCCC3)cc2c(=O)n1Cc1ccccc1 | inactive: 63%
51 | O=C(C1CCCCC1)N1CCN(C(=O)C2CCCCC2)CC1 | inactive: 96%
52 | CCCCOc1ccc(S(=O)(=O)n2nc(C)c(S(=O)(=O)N3CCCCCC3)c2C)cc1 | inactive: 78%
53 | O=C1CCSC2(C(=O)N(Cc3ccccc3)c3ccccc32)N1c1ccccc1 (stereo not drawn) | inactive: 113%
54 | O=C(NCCCN1CCN(c2ccccc2F)CC1)c1sc2ncccc2c1-n1cccc1 | inactive: 92%
55 | Cc1cc(OCC#N)nc(N)n1 | inactive: 110%
56 | CC(=O)N1c2ccc(S(=O)(=O)NCC3CCC(C(=O)Nc4cccc(C)c4)CC3)cc2CC1C (stereo not drawn) | inactive: 62%
57 | CCCC(=O)OC1=C(C(C)=O)N(Cc2ccccc2)S(=O)(=O)c2ccccc21 | inactive: 75%
58 | Cc1cc(S(=O)(=O)NCCc2csc(-c3cccc(F)c3)n2)ccc1F | inactive: 89%
59 | CN(C(=O)CSc1nc2ncccc2o1)c1ccc(F)cc1 | inactive: 76%
60 | O=C(CSc1nc2cc3ccccc3cc2[nH]1)Nc1cccc(C(F)(F)F)c1 | inactive: 74%
61 | Cc1ccc2c(c1)C(C(=O)O)=Cc1ccccc1O2 | inactive: 106%
62 | Cn1c(=O)c2c(ncn2CC(=O)N(CC(=O)NC2CCCCC2)Cc2ccccc2Cl)n(C)c1=O | inactive: 77%
63 | O=C(Nc1ccc(Cl)cc1)C1C2CCCCC21 (stereo not drawn) | inactive: 90%
64 | CNS(=O)(=O)c1cn(CC(=O)Nc2ccc(OC)c(Cl)c2)cc1S(=O)(=O)NC | inactive: 74%
65 | COc1ccccc1N1CCN(S(=O)(=O)c2ccc(-c3cc(C(F)(F)F)on3)s2)CC1 | inactive: 73%
66 | COc1cccc(N2C(=O)C(CC(=O)Nc3cccc(F)c3)N(C(C)C)C2=O)c1 (stereo not drawn) | inactive: 94%
67 | Cc1cc(N2CCCCC2)nc2ccc(NC(=O)c3ccc(F)cc3)cc12 | inactive: 51%
68 | COCCNC(=O)CSc1nc(-c2ccc(F)cc2)[nH]c1-c1ccc(Cl)cc1 | inactive: 71%
69 | CC(CNC(=O)Cn1ncc2c3ccccc3n(Cc3cccc(Cl)c3)c2c1=O)c1ccccc1 (stereo not drawn) | inactive: 95%
70 | O=C(COc1ccccc1)Nc1ccc(OCc2cc(=O)n3ccsc3n2)cc1 | inactive: 97%
71 | COc1ccc(OC)c(C2CC(=O)N(c3cccc(C)c3)C3=C2C(=O)OC3)c1 (stereo not drawn) | inactive: 163%
72 | CCOc1ccc(C(=O)Nc2ccc(S(=O)(=O)N(Cc3ccccc3)c3ccccc3)cc2)cc1 | inactive: 73%

Row | Compound | survival
73 | O=C(c1ccco1)N1CCN(c2ncnc3sc4c(c23)CCC4)CC1 | active: 36%
74 | CCN1C(=O)/C(=C2\C=Cc3ccccc3N2CC)SC1=S | inactive: 77%
75 | Cc1ccc(C)c(N2CCN(c3ncnc4onc(C)c34)CC2)c1 | inactive: 90%
76 | COCc1cc(C)nc2sc3c(=O)n(-c4cc(C)ccc4C)nnc3c12 | inactive: 87%
77 | CCOC(=O)c1ccccc1NC(=O)N1CCN2CCCCC2C1 (stereo not drawn) | inactive: 73%
78 | O=C(Cc1ccccc1)N/N=C/c1cccs1 | inactive: 88%
79 | COc1ccccc1CCNC(=O)Cc1c(C)c2ccc(O)cc2oc1=O | inactive: 57%
80 | CC(=O)Nc1nonc1-c1nnc(SCC(=O)Nc2cc(C)ccc2C)n1-c1ccccc1 | inactive: 104%
81 | CCOC(=O)c1cc(OC(=O)c2cccc(C)c2)n(-c2ccccc2)n1 | inactive: 59%
82 | CS(=O)(=O)N1CCN(c2ccccc2F)CC1 | inactive: 80%
83 | COc1cccc(CNc2ncnc3onc(-c4ccc(F)cc4)c23)c1 | inactive: 71%
84 | COCc1cc(C)nc2sc3c(c12)NC(c1ccc(NC(C)=O)cc1)N(c1ccc(C)cc1)C3=O (stereo not drawn) | inactive: 67%
85 | O=c1c2ccccc2n(Cc2cccc(Cl)c2)c(=O)n1CCc1ccccc1 | inactive: 65%
86 | CC(=O)NCCc1nc2ccccc2n1CCCCOc1ccc(Cl)cc1 | inactive: 61%
87 | CCN(c1ccccc1)c1nnc(NC(=O)Nc2cccc(C(F)(F)F)c2)s1 | inactive: 88%
88 | CCc1ccc(NC(=O)c2cc3ccccn3n2)cc1 | inactive: 99%
89 | Cc1nc2cc(C(F)(F)F)ccc2n1C1CCN(C(=O)C2CC2)CC1 | inactive: 100%
90 | Cc1cc(C)c2c(CC(=O)Nc3nnc(C(C)C)s3)coc2c1 | inactive: 75%
91 | Fc1ccccc1CNCCCSc1nnnn1-c1ccccc1 | inactive: 68%
92 | O=C(CSc1nc(=O)[nH]c2c1CCCC2)Nc1cc(C(F)(F)F)ccc1Cl | inactive: 91%
93 | COc1ccc(-c2nnc(Nc3ccc(OCC(N)=O)cc3)c3ccccc23)cc1 | inactive: 69%
